Assay results as given in patent publication US9045526B2 (THE REGENTS OF THE UNIVERSITY OF MICHIGAN, priority 2011, dated 2015).
Numbered stars: 1 amine (or outer) side, 2 acyl side, 3 side chain; on linkers, the order of the positions; unused ones are H or OH. Bridge positions count the residues as written; N and C are the ends. Square brackets hold non-standard residues; d marks the D form. Peptide text beside a SMILES is read from it. Dmt = Cc1cc(O)cc(C)c1C[C@H](N)C(=O)O; dPen = CC(C)(S)[C@@H](N)C(=O)O; Aic = NC1(C(=O)O)Cc2ccccc2C1; CH2CH2 = C(C[*:2])[*:1]

How the values were obtained:
[1] = target: MOR (Rattus norvegicus, UniProt P33535); assay: MOR | EC50, nM; parameters: expressed in transfected cells; host or cells: C6 rat glioma cells (C6-MOR), stably transfected
MOR, sequence (P33535 whole entry, looked up): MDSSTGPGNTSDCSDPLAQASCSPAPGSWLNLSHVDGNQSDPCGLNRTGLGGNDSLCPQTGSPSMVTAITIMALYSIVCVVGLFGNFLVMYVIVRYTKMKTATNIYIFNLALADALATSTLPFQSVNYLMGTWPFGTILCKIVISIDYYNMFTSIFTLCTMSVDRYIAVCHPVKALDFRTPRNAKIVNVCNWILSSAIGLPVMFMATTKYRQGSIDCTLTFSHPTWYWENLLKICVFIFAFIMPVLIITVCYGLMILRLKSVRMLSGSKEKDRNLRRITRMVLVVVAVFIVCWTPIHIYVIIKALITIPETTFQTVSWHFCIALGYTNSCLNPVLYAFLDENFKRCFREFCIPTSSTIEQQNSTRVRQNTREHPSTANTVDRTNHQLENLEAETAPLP
Description: (§1) Table printed on a drawing sheet, FIGURE 5

[2] = target: DOR (Rattus norvegicus, UniProt P33533); assay: DOR | EC50; parameters: expressed in transfected cells; host or cells: C6 rat glioma cells (C6-DOR), stably transfected
DOR, sequence (P33533 whole entry, looked up): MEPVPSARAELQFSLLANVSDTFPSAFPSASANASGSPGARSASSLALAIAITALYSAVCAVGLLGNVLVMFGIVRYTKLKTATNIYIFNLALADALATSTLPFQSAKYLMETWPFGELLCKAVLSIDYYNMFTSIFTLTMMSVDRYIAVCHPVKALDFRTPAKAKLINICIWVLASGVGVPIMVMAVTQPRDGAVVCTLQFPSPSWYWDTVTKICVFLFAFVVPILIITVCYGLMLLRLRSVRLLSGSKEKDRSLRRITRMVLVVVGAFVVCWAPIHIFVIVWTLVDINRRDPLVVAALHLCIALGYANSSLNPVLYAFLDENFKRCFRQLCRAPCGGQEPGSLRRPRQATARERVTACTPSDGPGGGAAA
Description: as §1
Head of the field: DOR | EC50

[3] = target: T1, kappa-opioid receptor (KOR) (Homo sapiens, UniProt P41145); assay: Ki, nM | (KOR)
T1 construct: expressed in transfected cells
T1 sequence (P41145 whole entry, looked up): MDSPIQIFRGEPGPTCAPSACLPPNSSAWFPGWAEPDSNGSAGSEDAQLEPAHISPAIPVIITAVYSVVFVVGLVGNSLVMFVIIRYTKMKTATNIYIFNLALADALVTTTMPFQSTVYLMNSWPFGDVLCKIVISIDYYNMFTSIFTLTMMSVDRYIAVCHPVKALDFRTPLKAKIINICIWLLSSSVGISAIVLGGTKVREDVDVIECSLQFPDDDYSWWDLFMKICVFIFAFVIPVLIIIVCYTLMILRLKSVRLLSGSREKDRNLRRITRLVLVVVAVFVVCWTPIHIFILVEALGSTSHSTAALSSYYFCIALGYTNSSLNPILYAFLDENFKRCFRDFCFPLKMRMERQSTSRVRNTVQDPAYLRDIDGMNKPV
Description: Table printed on a drawing sheet, FIGURE 4
Head of the field: Ki, nM | (KOR)
First copying reader's note: Each result cell holds the value together with its ± error.

Compound	EC50 [1]	EC50 [2]	Ki [3]
Cc1cc(O)cc(C)c1C[C@H](N)C(=O)N[C@@H]1CSCCSC(C)(C)[C@H](C(=O)N[C@@H](CO)C(N)=O)NC(=O)C2(Cc3ccccc3C2)NC1=O [VRP-19] (H-[Dmt][dC][Aic][dPen]S-NH2; linker 2-4 via CH2CH2)	6.64 ± 4.8 nM	22.4 ± 12.7 nM	–
Cc1cc(O)cc(C)c1C[C@H](N)C(=O)N[C@@H]1CSCCSC(C)(C)[C@H](C(=O)N[C@@H](CCCNC(=N)N)C(N)=O)NC(=O)C2(Cc3ccccc3C2)NC1=O [VRP-24] (H-[Dmt][dC][Aic][dPen]R-NH2; linker 2-4 via CH2CH2)	–	–	65.3 ± 5.8 nM
